Measured values reported in PubChem BioAssay (NCI).
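Five compound concentrations were applied to cells in 96-well plates for 48 hours; endpoints were derived by simple linear interpolation of the resulting dose-response curve. At the TGI there is no net growth.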 For part of its entries the source gives two or more results. This is not the full list of results. The source may hold further records. Records of one sample usually come from different ranges of test concentrations, which the source does not state; some values may only mark the edge of a range.

Assays:
Experiment in all cases: NCI-60 cell line screen, 48 h
CAKI-1 renal = tested on: CAKI-1 renal
COLO 205 colon = tested on: COLO 205 colon
HCT-116 colon = tested on: HCT-116 colon

For `CSCS(=O)C[C@H](CO)NC(=O)/C=C/c1c(C)[nH]c(=O)[nH]c1=O` (stereo partly drawn), the TGI (CAKI-1 renal) was > 100 µM and 4.94 µM, the TGI (COLO 205 colon) was > 40.4 µM and 3.49 µM and the TGI (HCT-116 colon) was > 92.7 µM and 7.56 µM.
